Measurements reported in paper PMC4336329 (PLoS ONE, 2015).
Out of some 310,000 compounds screened, about 14,000 (4.5%) showed an effect of 50% or more. Effects have a minus sign here. The list shows a part of the results.

target: human ether-à-go-go-related gene (hERG) potassium channel (human, UniProt Q12809); assay: primary screen, population patch clamp on CHO cells stably expressing hERG
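Note: peak tail current of the secondary pulse compared with the same well before compound.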

Sequence of human ether-à-go-go-related gene (hERG) potassium channel (Q12809 whole entry, looked up): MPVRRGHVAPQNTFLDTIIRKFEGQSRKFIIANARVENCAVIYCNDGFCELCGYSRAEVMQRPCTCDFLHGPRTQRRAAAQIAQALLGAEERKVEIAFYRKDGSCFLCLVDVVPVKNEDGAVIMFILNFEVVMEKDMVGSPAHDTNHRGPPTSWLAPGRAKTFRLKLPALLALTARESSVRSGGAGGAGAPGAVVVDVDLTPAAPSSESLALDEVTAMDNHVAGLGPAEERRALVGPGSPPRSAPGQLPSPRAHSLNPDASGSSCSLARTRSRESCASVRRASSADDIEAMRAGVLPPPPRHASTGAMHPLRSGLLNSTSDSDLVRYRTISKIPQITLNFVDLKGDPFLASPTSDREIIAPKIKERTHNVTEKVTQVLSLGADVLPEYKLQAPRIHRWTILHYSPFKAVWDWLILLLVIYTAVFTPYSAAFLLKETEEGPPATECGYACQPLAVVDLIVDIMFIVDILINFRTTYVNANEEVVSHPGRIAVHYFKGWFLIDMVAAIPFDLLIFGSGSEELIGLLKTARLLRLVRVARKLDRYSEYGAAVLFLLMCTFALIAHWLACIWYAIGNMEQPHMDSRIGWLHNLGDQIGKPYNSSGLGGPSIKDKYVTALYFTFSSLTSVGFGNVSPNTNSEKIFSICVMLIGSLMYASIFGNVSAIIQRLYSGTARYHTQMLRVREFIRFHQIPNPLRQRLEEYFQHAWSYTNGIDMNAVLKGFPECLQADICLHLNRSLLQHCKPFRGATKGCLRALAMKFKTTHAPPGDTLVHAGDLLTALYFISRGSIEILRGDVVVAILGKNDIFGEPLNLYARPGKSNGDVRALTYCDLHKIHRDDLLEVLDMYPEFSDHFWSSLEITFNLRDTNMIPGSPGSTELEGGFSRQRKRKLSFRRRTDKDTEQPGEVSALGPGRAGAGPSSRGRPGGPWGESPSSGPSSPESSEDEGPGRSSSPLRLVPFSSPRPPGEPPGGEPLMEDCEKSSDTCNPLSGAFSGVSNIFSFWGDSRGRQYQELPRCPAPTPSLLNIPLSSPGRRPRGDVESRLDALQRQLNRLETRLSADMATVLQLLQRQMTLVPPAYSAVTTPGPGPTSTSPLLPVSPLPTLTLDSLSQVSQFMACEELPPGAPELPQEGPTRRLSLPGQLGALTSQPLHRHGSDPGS

| Compound | hERG current change (%, negative = inhibition) at 10uM |
| --- | --- |
| NC1=NC(=O)C(Cc2cccc(Cl)c2)S1 (stereo not shown) | 15% |
| COc1cccc(-c2nn(-c3ccc(C)cc3)cc2C(=O)N2CCc3cc(OC)c(OC)cc3C2)c1 | -31.7% |
| Cc1cc(C(=O)Nc2sc3c(c2C#N)CCC(C)C3)cs1 (stereo not shown) | -2.15% |
| Cc1cc(OCc2cn3cccnc3n2)ccc1Cl | -15.3% |
| CC1CCN(C(=O)CSc2ccc(-c3ccc(F)cc3)nn2)CC1 | -34.5% |
| Cc1cc(=O)[nH]c(N2CCOCC2)n1 | 21.4% |
| Cc1ccsc1C(=O)NC(C)c1ccc2c(c1)OCO2 (stereo not shown) | -11.7% |
| O=C(CCc1nc2ccccc2c(=O)[nH]1)Nc1ccc(Cl)c(Cl)c1 | -4.7% |
| COc1ccc(OC)c(C2N(c3ccccn3)C(=O)C3CCCN32)c1 (stereo not shown) | 11% |
| CC(C)Nc1ccc(C(CC(N)=O)NC(=O)c2ccccc2)cc1[N+](=O)[O-] (stereo not shown) | 6.58% |
| COc1cccc(CN(C(=O)c2cnccn2)C(C(=O)NC2CCCCC2)c2cc(OC)c(OC)c(OC)c2)c1 (stereo not shown) | 2.63% |
| O=C(NCc1cccnc1)Nc1cccc(Cl)c1 | 15% |
| CCc1ccc(N2C(=O)c3cc(N4CCOCC4)c([N+](=O)[O-])cc3C2=O)cc1 | 10.5% |
| CC(C)C(=O)Nc1ccc(C(=O)Nc2ccc(Br)cc2F)cc1 | 13.9% |
| COc1ccc(-c2nc(NC(=O)Cn3ccc(C(F)(F)F)n3)sc2C)cc1 | -2.03% |
| COC(=O)Nc1ccc(S(=O)(=O)N2CCN(C)CC2)cc1 | 3.05% |
| Cc1cc(C)cc(NC(=O)c2cnn(-c3ccccc3)c2C2CCNCC2)c1.Cl | -19.7% |
| CC(=O)c1ccc(NC(=O)COc2ccc3c(c2)OCO3)cc1 | 2.21% |
| Nc1nc(COC(=O)c2ccc3c(c2)OCCO3)nc(Nc2ccccc2)n1 | 10.2% |
| Cc1onc(-c2ccccc2Cl)c1C(=O)NCc1ccc(N2CCCC2=O)cc1 | 6.83% |
| Cc1ccccc1N1C(=O)NC(=O)/C(=C/c2ccc(N3CCOCC3)o2)C1=O | 6.24% |
| CC1CN(C)C(C)C/C1=N\Oc1ccc([N+](=O)[O-])cc1.Cl (stereo not shown) | -78.6% |

| Compound | hERG current change (%, negative = inhibition) at 10uM |
| --- | --- |
| Cc1ccc(S(=O)(=O)c2c(C)nn(C(C)(C)C)c2OC(=O)c2ccco2)cc1 | 3.58% |
| Cc1ccc(-c2cc(-c3ccccc3)[nH]c(=S)c2C#N)cc1 | 23.3% |
| O=C(COc1coc(CN2CCN(c3ccccc3)CC2)cc1=O)Nc1ccccc1F | -3.41% |
| O=C(CSc1ccc([N+](=O)[O-])cn1)Nc1ccc2c(c1)OCO2 | 6.75% |
| Cc1ccc(NC(=O)C(=O)NCC2CCCO2)cc1 (stereo not shown) | 5.47% |
| CCc1ccccc1NC(=O)CN(C)C(=O)CSc1nnc(Nc2ccc(C)cc2)s1 | -0.0116% |
| Cc1ccc(-c2nn(C)c(=O)c3ccccc23)cc1S(=O)(=O)NCCN1CCOCC1 | -2.69% |
| O=C(O)c1cccc(Cn2c(Cl)c(/C=N/NC(=O)c3ccccc3O)sc2=O)c1 | 12.6% |
| COC(=O)c1cccc(NC(=O)CSc2nnc(C3CC3)n2C)c1 | 5.37% |
| O=C(NCCc1ccccc1)C1CCN(S(=O)(=O)c2cccc3nonc23)CC1 | -10.5% |
| O=C(C1=C(O)C(=O)N(CCCN2CCOCC2)C1c1ccccn1)c1cc2ccccc2o1 (stereo not shown) | -1.14% |
| Cc1c(C(=O)OCC(=O)Nc2c(C)n(C)n(-c3ccccc3)c2=O)oc2ccccc12 | -0.217% |
| CSc1ccc(CN2C(=O)NC3(CCCCC3)C2=O)cc1 | 22.6% |
| CCN(CC)c1ccc(/C=N/NC(=O)Nc2nonc2N)cc1 | 2.78% |
| NC(=O)c1cc[n+](Cc2ccc([N+](=O)[O-])cc2)cc1.[Br-] | 10.1% |
| COCCNC(=O)C1CC(c2ccc([N+](=O)[O-])cc2)=NO1 (stereo not shown) | -0.798% |
| CCc1cc2c(SCC(=O)NC(=O)c3cccn3C)ncnc2s1 | 10.5% |
| Cc1ccc(NC(=S)N2CCCC(c3ccccc3)=N2)cc1 | 9.21% |
| O=C(c1ccc(S(=O)(=O)c2ccccc2Cl)c([N+](=O)[O-])c1)N1CCN(Cc2ccccc2)CC1 | -25.3% |
| C=CCNC(=S)Nc1ccc(OC(F)F)c(Cl)c1 | -8.12% |
| Cc1cc(C)n2nc(C(=O)OCC(=O)NNC(=O)c3ccc(Cl)cc3)nc2n1 | 10.6% |
